{"source": "PubChem BioAssay (NCI)", "tested_on": "NCI-H322M lung", "experiment": "DTP human tumour cell line panel, 48 h", "note": "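Tested at 5 concentrations; 48 h exposure; 96-well plates; endpoints linearly interpolated, else capped at highest concentration. Here, GI50 denotes the concentration required for 50% inhibition of growth. TGI denotes the concentration required for complete inhibition of growth.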"}
{"smiles": "O=C1NC(=O)c2c1c1c3ccccc3ccc1c1[nH]c3ccccc3c21", "values": [{"measurement": "GI50", "result": 0.539, "unit": "µM"}, {"measurement": "TGI", "result": "> 100", "unit": "µM"}]}
{"smiles": "CCOc1ccc(-c2nnc(C3CC(NC(=O)c4cccc5nccnc45)C3)n2-c2ccccc2F)nc1", "note": "(stereo unspecified)", "values": [{"measurement": "GI50", "result": 26.5, "unit": "µM"}, {"measurement": "TGI", "result": "> 100", "unit": "µM"}]}
{"smiles": "C/C(=N\\NC(=S)Nc1ccc(Br)cc1)c1cc2ccccc2oc1=O", "values": [{"measurement": "GI50", "result": 1.39, "unit": "µM"}, {"measurement": "TGI", "result": 27.4, "unit": "µM"}]}
